Article PMC13189625
These are yes or no findings as the source states them, for the method shown. In cells and extracts the contact can be indirect. Some binding calls cover weakened binding; strength is not graded here. For part of these data: Sequences can lack the tags named with a protein.

By UniProt entry, the sequences of proteins in these tests, tags left out.
UniProt G3X9J0: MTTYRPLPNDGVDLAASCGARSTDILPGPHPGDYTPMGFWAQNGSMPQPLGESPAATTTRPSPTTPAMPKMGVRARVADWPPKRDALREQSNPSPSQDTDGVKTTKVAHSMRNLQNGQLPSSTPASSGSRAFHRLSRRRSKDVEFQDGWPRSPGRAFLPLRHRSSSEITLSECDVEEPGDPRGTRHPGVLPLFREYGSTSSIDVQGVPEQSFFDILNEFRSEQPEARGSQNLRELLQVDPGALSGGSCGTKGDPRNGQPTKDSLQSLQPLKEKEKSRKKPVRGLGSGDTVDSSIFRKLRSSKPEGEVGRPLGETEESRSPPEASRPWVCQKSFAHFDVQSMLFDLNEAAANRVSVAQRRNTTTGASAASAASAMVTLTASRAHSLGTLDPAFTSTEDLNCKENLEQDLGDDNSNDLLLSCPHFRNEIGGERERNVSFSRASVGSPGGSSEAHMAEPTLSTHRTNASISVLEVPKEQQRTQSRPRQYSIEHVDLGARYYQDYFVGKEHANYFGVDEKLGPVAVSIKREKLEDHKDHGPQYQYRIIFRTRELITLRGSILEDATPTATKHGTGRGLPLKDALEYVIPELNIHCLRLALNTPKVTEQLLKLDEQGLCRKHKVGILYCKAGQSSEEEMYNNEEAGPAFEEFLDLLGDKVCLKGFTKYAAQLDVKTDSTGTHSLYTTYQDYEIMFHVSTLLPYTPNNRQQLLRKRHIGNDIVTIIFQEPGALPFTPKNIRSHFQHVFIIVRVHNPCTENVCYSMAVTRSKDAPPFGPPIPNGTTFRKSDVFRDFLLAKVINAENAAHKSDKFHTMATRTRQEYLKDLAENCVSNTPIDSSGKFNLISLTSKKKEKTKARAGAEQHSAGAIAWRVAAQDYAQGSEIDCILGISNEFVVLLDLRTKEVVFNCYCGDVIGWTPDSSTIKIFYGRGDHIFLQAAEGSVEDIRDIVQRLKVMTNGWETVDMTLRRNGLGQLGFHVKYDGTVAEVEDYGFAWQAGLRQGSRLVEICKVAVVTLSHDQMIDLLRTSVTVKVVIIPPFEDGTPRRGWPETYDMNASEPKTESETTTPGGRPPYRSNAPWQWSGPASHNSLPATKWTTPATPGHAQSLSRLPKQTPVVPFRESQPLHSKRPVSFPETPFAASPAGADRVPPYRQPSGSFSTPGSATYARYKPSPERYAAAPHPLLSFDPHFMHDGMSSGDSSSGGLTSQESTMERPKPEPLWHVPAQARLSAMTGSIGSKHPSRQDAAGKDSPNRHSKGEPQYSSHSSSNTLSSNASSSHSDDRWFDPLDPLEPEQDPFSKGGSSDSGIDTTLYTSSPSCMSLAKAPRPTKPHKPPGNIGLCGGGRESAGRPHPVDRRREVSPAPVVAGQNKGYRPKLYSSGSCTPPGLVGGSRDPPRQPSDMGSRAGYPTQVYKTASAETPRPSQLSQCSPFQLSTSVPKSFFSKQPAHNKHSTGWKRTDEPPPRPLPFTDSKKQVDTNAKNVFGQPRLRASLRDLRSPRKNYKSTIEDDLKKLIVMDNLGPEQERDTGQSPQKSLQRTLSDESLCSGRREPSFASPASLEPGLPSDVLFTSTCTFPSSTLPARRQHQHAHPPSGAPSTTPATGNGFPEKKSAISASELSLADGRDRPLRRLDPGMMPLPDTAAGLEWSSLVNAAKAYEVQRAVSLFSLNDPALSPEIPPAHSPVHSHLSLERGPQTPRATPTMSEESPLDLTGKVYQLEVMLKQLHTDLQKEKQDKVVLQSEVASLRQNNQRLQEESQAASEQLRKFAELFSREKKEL

T1: FLAG-Sj2bp (UniProt P57105)
T1 sequence: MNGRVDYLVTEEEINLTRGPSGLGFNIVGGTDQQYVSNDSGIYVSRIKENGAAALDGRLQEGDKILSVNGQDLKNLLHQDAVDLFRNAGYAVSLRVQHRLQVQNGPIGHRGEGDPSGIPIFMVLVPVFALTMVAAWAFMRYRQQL

T2: GFP-ZO-2 (UniProt Q9UDY2)
T2 sequence: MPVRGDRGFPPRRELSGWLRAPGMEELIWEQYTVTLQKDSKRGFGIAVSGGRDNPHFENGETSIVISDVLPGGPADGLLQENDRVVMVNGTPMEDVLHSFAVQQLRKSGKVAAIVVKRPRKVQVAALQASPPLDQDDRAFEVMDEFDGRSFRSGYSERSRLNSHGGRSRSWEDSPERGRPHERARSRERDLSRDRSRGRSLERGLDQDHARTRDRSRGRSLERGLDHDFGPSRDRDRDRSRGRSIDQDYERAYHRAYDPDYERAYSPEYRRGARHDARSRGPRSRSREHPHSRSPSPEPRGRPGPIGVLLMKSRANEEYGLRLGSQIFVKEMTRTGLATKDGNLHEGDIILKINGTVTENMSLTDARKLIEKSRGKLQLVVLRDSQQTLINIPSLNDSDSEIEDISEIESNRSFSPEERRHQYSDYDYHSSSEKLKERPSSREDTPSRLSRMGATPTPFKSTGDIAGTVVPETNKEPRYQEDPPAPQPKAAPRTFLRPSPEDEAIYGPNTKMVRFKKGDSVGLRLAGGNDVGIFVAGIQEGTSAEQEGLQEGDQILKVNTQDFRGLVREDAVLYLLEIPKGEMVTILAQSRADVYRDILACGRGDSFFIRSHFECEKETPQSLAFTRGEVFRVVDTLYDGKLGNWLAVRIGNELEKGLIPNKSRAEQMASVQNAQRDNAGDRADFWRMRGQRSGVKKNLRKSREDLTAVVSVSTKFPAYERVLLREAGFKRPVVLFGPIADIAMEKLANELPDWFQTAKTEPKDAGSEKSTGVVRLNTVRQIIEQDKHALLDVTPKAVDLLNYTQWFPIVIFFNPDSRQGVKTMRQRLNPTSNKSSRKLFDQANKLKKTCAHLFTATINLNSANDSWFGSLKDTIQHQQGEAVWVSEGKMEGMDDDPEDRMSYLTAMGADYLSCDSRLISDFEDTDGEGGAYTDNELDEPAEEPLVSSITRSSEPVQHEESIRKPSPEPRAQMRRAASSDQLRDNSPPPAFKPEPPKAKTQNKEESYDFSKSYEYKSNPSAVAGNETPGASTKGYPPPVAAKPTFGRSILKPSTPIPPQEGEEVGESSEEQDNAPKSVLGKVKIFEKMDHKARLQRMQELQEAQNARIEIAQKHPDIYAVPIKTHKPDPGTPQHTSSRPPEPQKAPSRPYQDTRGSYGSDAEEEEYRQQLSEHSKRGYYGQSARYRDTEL

T3: Venus-ZO-1, Q07157
T3 chain: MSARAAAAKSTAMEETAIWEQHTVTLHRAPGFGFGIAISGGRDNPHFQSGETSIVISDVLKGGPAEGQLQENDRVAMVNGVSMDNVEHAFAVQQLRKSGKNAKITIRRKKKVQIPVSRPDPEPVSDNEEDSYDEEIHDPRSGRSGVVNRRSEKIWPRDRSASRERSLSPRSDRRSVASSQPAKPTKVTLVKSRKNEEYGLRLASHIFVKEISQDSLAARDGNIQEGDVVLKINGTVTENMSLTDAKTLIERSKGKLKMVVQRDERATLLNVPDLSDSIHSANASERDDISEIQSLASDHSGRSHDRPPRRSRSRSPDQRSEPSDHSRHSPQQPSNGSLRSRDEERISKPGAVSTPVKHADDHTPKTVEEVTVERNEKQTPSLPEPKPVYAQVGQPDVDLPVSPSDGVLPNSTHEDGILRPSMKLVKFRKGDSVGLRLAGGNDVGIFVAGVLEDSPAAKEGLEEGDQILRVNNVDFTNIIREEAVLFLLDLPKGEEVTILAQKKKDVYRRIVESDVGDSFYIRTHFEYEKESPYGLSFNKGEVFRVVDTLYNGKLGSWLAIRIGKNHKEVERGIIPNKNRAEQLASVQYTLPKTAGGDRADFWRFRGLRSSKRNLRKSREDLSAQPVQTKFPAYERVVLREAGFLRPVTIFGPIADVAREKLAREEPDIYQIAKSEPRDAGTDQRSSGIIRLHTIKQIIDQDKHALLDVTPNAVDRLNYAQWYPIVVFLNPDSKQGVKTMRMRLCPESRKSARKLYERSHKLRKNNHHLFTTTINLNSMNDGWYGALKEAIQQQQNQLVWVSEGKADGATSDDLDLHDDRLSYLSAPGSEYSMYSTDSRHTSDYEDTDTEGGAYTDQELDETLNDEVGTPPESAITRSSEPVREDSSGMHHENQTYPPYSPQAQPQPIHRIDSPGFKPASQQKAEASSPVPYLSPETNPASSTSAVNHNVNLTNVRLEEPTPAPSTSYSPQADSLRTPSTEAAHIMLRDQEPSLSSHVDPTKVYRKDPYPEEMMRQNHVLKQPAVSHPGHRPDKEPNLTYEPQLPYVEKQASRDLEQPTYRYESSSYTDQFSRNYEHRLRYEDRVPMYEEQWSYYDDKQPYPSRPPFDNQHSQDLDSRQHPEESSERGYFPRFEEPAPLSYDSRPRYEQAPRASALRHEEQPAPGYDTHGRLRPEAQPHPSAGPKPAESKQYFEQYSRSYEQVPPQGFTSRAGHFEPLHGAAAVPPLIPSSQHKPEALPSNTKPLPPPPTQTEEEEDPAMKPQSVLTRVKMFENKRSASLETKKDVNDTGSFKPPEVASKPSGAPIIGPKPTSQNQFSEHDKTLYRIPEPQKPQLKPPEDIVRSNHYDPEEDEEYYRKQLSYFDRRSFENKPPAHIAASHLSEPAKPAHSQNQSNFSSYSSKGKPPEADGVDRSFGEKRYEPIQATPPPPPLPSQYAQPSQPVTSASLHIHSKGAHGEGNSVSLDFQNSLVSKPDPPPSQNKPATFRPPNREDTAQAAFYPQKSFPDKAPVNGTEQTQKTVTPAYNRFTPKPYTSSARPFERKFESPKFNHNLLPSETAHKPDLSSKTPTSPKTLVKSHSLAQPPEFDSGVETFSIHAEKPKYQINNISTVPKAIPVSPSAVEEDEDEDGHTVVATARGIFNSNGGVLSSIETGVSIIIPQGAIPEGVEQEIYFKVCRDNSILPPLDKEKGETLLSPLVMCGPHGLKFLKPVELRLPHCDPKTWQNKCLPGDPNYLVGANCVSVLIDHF


Key:
[1] = molecular target: Myc-Sipa1l3 (UniProt G3X9J0); assay: co-IP; co-transfected HEK293T lysate; 0.5 µg Sipa1l3 antibody overnight, then protein A/G beads 1 h at 4°C; Western blot
[2] = molecular target: T1, FLAG-Sj2bp; assay: co-IP; co-transfected HEK293T lysate cleared at 20,000 × g; DYKDDDDK Fab-Trap agarose overnight, FLAG-Sj2bp as bait; Western blot
[3] = molecular target: T2, GFP-ZO-2; assay: co-IP; co-transfected HEK293T lysate; GFP-Trap agarose overnight at 4°C; IP buffer with 200 mM NaCl, 1% Tx-100, 50 mM Tris HCl pH 7.5; Western blot
[4] = molecular target: T3, Venus-ZO-1, Q07157; assay: as above; conditions: remark: other sources report otherwise

binding [1]	binding [2]	binding [3]	binding [4]	Molecule
no binding	no binding			Cx36/S318Ter (from UniProt O54851 1-317) (domain or fragment)
binds	no binding	binds		Connexin 36 (from UniProt O54851 1-321)
			binds	Connexin 36, O54851 1-321 (protein) MGEWTILERLLEAAVQQHSTMIGRILLTVVVIFRILIVAIVGETVYDDEQTMFVCNTLQPGCNQACYDRAFPISHIRYWVFQIIMVCTPSLCFITYSVHQSAKQRERRYSTVFLALDRDPAESIGGPGGTGGGGSGGSKREDKKLQNAIVNGVLQNTETTSKETEPDCLEVKELTPHPSGLRTAARSKLRRQEGISRFYIIQVVFRNALEIGFLVGQYFLYGFSVPGLYECNRYPCIKEVECYVSRPTEKTVFLVFMFAVSGICVVLNLAELNHLGWRKIKLAVRGAQAKRKSVYEIRNKDLPRVSVPNFGRTQSSDSAYV
